# Values joined by “and” are separate entries in the source; they are usually repeats but may differ in a detail not shown here. Equal entries are not always repeated. Hit rate of the full screen: of about 100,000 compounds, about 250 (0.25%) were called active. The shares of active, inactive and inconclusive entries below differ from those in the screen. Calls come from the whole dose curve; as a rule, active = well fitted inhibition curve with a large enough effect; inconclusive = small, poorly fitted or top-dose-only effect; inactive = flat fitted curve, though single readings scatter. Potencies of inconclusive entries are doubtful fits and often do not repeat.
# Target: Alanine aminotransferase 2 (Homo sapiens) (UniProt Q8TD30)
# Sequence of UniProt Q8TD30 (Q8TD30 whole entry, looked up): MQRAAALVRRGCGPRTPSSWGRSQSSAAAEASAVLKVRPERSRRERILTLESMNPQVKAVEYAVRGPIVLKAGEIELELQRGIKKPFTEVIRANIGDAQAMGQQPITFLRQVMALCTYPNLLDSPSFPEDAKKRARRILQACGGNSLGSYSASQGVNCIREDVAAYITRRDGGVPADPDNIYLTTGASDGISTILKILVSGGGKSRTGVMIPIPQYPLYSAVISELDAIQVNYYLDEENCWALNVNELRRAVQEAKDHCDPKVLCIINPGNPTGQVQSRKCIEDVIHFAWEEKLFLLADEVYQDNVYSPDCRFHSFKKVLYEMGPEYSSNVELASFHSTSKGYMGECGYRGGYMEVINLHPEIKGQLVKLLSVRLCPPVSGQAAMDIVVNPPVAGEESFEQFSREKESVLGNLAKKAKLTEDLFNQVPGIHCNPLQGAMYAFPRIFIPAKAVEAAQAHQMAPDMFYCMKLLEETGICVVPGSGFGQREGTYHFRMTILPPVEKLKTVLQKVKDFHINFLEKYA
# Assay: Primary qHTS assay for inhibitors of Glutamate pyruvate transaminase 2 (GPT2); note: nearly all actives have a fitted effect of over 60% in size
# Conditions: Recombinant GPT2, coupled pyruvate oxidase/HRP Amplex Red fluorescence; activity change, negative = inhibition: at 57.7 µM (top of the series) unless noted; series mostly up to 57.7 µM
# Summary of the method: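 Recombinant GPT2 (10ng/uL) with 250uM a-KG and 2mM L-alanine, 30 min at room temperature, in HEPES pH 7.5 buffer. Pyruvate detected by pyruvate oxidase/HRP/Amplex Red fluorescence after 30 min in the dark; AOA (50uM) as positive control.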
# % is set by controls: 0 for no effect and ±100 for the full control effect; potency is the fitted concentration of half-maximal effect; tags give direction and shape of the fitted curve.
Structure (SMILES),Potency,outcome,"activity change, negative = inhibition"
COCC(=O)NC[C@H]1O[C@@H](CC(=O)NCc2ccc(F)cc2)[C@H](O)[C@@H]1O,"inconclusive: 8.91 µM [inhibitor, single point]",,
CCn1ncc(N2CCCC(CC(=O)N(C)C3CCN(C)CC3)C2)cc1=O (stereo not given),,inactive,
COc1ccc(-c2nc(C(C)C)nc3c2CCN(C(=O)c2cccc(Cl)c2)CC3)cc1,,,inactive: -9.01%
Cn1ccc2c(C(=O)NCc3cccnc3)nc(-c3cccnc3)cc21,,,inactive: 2.41% [at 88.5 µM]
Cc1ccc(NC(=O)CCNc2cnc3cnccn23)cc1F,"inconclusive: 39.8 µM [inhibitor, single point]",,
O=C1CC(c2ccccc2)N(C(=O)CNS(=O)(=O)c2cccs2)CCCCCCN1 (stereo not given),"inconclusive: 10 µM [inhibitor, partial curve]",,
CC(C)(C)c1ccc(-c2noc(-c3ncn4c3COC(c3ccc(F)cc3)C4)n2)cc1 (stereo not given),"inconclusive: 6.31 µM [inhibitor, single point]",,
CNC(=O)[C@@H](Cc1ccccc1)N1CCC[C@H]1C(=O)NCCN(C)C,"inconclusive: 11.2 µM [inhibitor, partial curve, poor fit]",,
CCN(Cc1ccccc1)C(=O)Cn1c(C)ccc(NS(=O)(=O)c2ccccc2)c1=O,"inconclusive: 39.8 µM [inhibitor, single point]",,
CN1CCN(Cc2ccc(-c3cnc4[nH]cc(-c5ccc6[nH]ccc6c5)c4c3)cc2)CC1,"inconclusive: 6.31 µM [inhibitor, single point]",,
CCC(C)/C=C(C)/C=C/C1=CC2=C(Cl)C(=O)C(C)(OC(C)=O)C(=O)C2=CN1CCCCC(N)C(=O)O (stereo not given),"inconclusive: 3.98 µM [inhibitor, single point]",,
Cc1ccc(C(=O)N2CCC(Cc3nc(-c4ccccc4)n[nH]3)CC2)cn1,"inconclusive: 39.8 µM [inhibitor, single point]",,
O=C(c1cccs1)N1CCc2[nH]nc(-c3cccc(F)c3)c2C1,,,inactive: -4.22%
COc1ccc2c(c1)OCC(C(=O)NCCS(=O)(=O)N1CCCC1)C2 (stereo not given),,inactive,
CCCCn1c(=O)c(C(=O)N2CCN(C(=O)c3ccc(C)cc3)CC2)nc2cccnc21,"inconclusive: 39.8 µM [inhibitor, single point]",,
Cc1cc(C(=O)N2CCCC3(CCNCC3)CC2)c2cnn(C(C)C)c2n1,"inconclusive: 3.98 µM [inhibitor, partial curve, poor fit]",,
O=C(COc1ccccc1)N1CCCCCC1c1nc(-c2ccncc2)no1 (stereo not given),,,inactive: 0.593%
CC(C)c1cnc(C2CCN(C(=O)OC(C)(C)C)CC2)[nH]1,"inconclusive: 12.6 µM [inhibitor, single point]",,
COCC1CN(C)CC12CCN(S(=O)(=O)c1ccc3c(c1)CCC3)CC2 (stereo not given),"inconclusive: 4.47 µM [inhibitor, single point]",,
O=C1c2c(O)ccc(O)c2C(=O)c2c(NCCNCCO)ccc(NCCNCCO)c21,"inconclusive: 21.7 µM [inhibitor, partial curve, poor fit] and active: 10 µM and inconclusive: 3.55 µM [inhibitor, full curve]",,

Structure (SMILES),Potency,outcome,"activity change, negative = inhibition"
NCCc1cccc(CN2CCC(OCc3ccccc3)CC2)c1,"inconclusive: 2.82 µM [inhibitor, partial curve, poor fit]",,
COC(=O)C1=CO[C@@H](O[C@@H]2O[C@H](CO)[C@@H](O)[C@H](O)[C@H]2O)/C(=C\CO)[C@@H]1CC(=O)OCCc1ccc(O)cc1,,,inactive: 0.801% [at 27.3 µM]
Cc1ccc(Cn2cc(-c3ccncc3)cc2C(=O)NC2CC2)cc1,"inconclusive: 1 µM [inhibitor, partial curve, poor fit]",,
COCCOc1ccc(C(=O)N[C@@H]2CN(C(=O)Nc3cccc(C#N)c3)CCC[C@H]2O)cc1,"inconclusive: 3.55 µM [inhibitor, full curve, poor fit]",,
CC(C)(C)C(=O)N1CCCC1C(=O)N1CCC(c2nc3ccncc3[nH]2)CC1 (stereo not given),,inactive,
Cc1nc(-c2cccc(Cl)c2)n(CC(=O)NC(C)CCc2ccccc2)c(=O)c1CCO (stereo not given),"inconclusive: 2.24 µM [inhibitor, partial curve, poor fit]",,
COc1ccccc1C(=O)NC1CCN(c2cc(-c3ccc(F)cc3)[nH]n2)C1 (stereo not given),"inconclusive: 14.1 µM [inhibitor, partial curve]",,
O=C(C1CCCN(Cc2cccc(-c3ccc(F)cc3F)c2)C1)N1CCC(Cc2ccccc2)CC1 (stereo not given),"inconclusive: 28.2 µM [inhibitor, single point]",,
Cn1ncc2c(C(=O)Nc3ccc(F)cc3)cc(-c3ccc(Cl)cc3Cl)nc21,"inconclusive: 7.08 µM [inhibitor, single point]",,
CN(C)c1ccc(Nc2nc(N)n(C(=O)c3c(F)cccc3F)n2)cc1,active: 3.16 µM,,
FC(F)(F)c1ccc(-c2noc([C@@H]3Cc4nc[nH]c4CN3CC3CCCCC3)n2)cc1,"inconclusive: 3.98 µM [inhibitor, full curve, poor fit]",,
CO[C@H]1CN(C2CCN(C(=O)c3cccs3)CC2)[C@H]1c1cccnc1,,,inactive: 4.89%
CNC(=O)N1CCC(C2CCN(S(=O)(=O)c3cccc(C#N)c3)C2)CC1 (stereo not given),"inconclusive: 39.8 µM [inhibitor, single point]",,
CCc1ccc(S(=O)(=O)N2CCC(Oc3ncccc3C(=O)N3CCOCC3)C2)cc1 (stereo not given),"inconclusive: 25.1 µM [inhibitor, partial curve, poor fit]",,
O=C(NNc1nc2cc(F)ccc2n2cccc12)c1cnccn1,"inconclusive: 15.8 µM [inhibitor, partial curve, poor fit]",,
COc1ccccc1CN1CCN(C(=O)CCC[C@H]2NC[C@@H]3C[C@H]2CN(Cc2ccccc2)C3)CC1,"inconclusive: 17.8 µM [inhibitor, partial curve]",,
CC(C)c1cc(CNc2nc(Nc3cc(C4CC4)[nH]n3)cc(N3CCN(C)CC3)n2)on1,"inconclusive: 39.8 µM [inhibitor, single point]",,
CCOCCn1nc(CC)c2nc(N3CCC(C(=O)O)CC3)nc(Nc3cc(C)ccn3)c21,"inconclusive: 10 µM [inhibitor, partial curve]",,
O=C(Nc1cccc(F)c1)N1CCC2(CC1)SCC(=O)N2Cc1ccco1,,,inactive: 2.45%
O=C(c1ccccc1)N1CCn2c(nnc2-c2ccccc2)C1,"inconclusive: 3.98 µM [inhibitor, partial curve, poor fit]",,

Structure (SMILES),Potency,outcome,"activity change, negative = inhibition"
COc1cccc(-c2cc(C3CCN(C(=O)Nc4ccc(OC)cc4OC)CC3)[nH]n2)c1,"inconclusive: 39.8 µM [inhibitor, single point]",,
COc1ccc(Cn2c(=O)c(C(=O)N3CCN([S+](=O)([O-])c4ccc(C)cc4)CC3)nc3cccnc32)cc1,,,inactive: 4.73%
CCc1ccc(OCc2ccccc2C(=O)Nc2ccc3nc(C)cc(N)c3c2)cc1,"inconclusive: 43.2 µM [inhibitor, single point]",,
Cn1nc(C(C)(C)C)cc1C(=O)N[C@@H](Cc1cccc(Cl)c1)C(=O)NCC#N,"inconclusive: 39.8 µM [inhibitor, single point]",,
COc1ncccc1N1CC2(COCC(=O)N(Cc3cccc(OC(F)(F)F)c3)C2)C1,"inconclusive: 28.2 µM [inhibitor, partial curve, poor fit]",,
CCOCCOC1CCN(S(=O)(=O)c2ccccc2)CC1,"inconclusive: 6.31 µM [inhibitor, single point]",,
CC(C)[C@]1(O)CN(S(=O)(=O)c2ccc3c(c2)CCC(=O)N3)C[C@H]1C,"inconclusive: 28.2 µM [inhibitor, single point]",,
COCCN1CCCCCC(O)c2cc(C(=O)N(C)Cc3ccc(N4CCCCC4)cc3)ccc21 (stereo not given),"inconclusive: 0.891 µM [inhibitor, full curve, poor fit]",,
CNc1nc2c(c(C(=O)N3CCCC3)n1)CN(C(=O)Cn1nccc1C)CC2,"inconclusive: 6.31 µM [inhibitor, single point]",,
O=C1NCCCCCN(C(=O)CC2CCCCC2)[C@@H]2C[C@@H](C(=O)N3CCc4ccccc4C3)C[C@H]12,,,inactive: 4.59%
COc1ccc(CCNC(=O)c2cn3cc(-c4ccccc4)sc3n2)cc1,,inactive,
Cc1ccc(NC(=O)Nc2ccc(C)n(CC(=O)NC(C)(C)C)c2=O)cc1,,,inactive: -0.282%
O=C(NC(C(=O)N1CCCCC1)C1CCN(C(=O)CCc2ccccc2)CC1)c1cccs1 (stereo not given),"inconclusive: 35.5 µM [inhibitor, single point]",,
COc1cccc(NC(=O)C2(C)CCCc3cnc(N(C)C)nc32)c1 (stereo not given),"inconclusive: 5.62 µM [inhibitor, full curve, poor fit]",,
Cc1oc(-c2cccc(Cl)c2)nc1CN1CCN(C(=O)N(C)C)CC1,,inactive,
O=C1NC2(CCCN(C(=O)c3ccccc3)C2)COc2ccccc21 (stereo not given),"inconclusive: 35.5 µM [inhibitor, single point]",,
Cc1noc(C)c1C(=O)N[C@H]1CO[C@H]2[C@@H]1OC[C@H]2OCc1ccccc1,"inconclusive: 56.2 µM [inhibitor, single point]",,
CC(C)CC(=O)N1CCC2(CC1)CC(Cc1cccc(F)c1)CCO2 (stereo not given),"inconclusive: 6.31 µM [inhibitor, full curve]",,
Cn1ccnc1CN1C(=O)CO[C@H]2CN(Cc3ccc(S(C)(=O)=O)cc3)C[C@H]21,"inconclusive: 1 µM [inhibitor, full curve, poor fit]",,
Cc1noc(C2CC3(CCN(C(=O)c4cc5ccccc5[nH]4)CC3)CN2C)n1 (stereo not given),"inconclusive: 3.98 µM [inhibitor, single point]",,
